According to the supplement of paper PMC4967469:
Lines with a small IC50 respond at low doses; a fit beyond the top or the lowest dose is shown as a bound at that dose. AUC, from the same fit, is the share of area under the viability curve across the 256-fold dose range; it is 1 without any effect and falls as sensitivity rises. An inferred top dose was calculated from the reported fits.

Experiments:
Test in all cases: Viability of human cancer cell lines after 72 h of drug (GDSC screen)
BAY 61-3606 = compound: COc1ccc(-c2cc3nccn3c(Nc3ncccc3C(N)=O)n2)cc1OC [BAY 61-3606]; conditions: top dose 8 µM; top dose inferred
Procedure: (§1)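 Human cancer cell lines in 384-well plates, medium with 10% serum, drug for 72 h over a 256-fold dose range (nine 2-fold or five 4-fold steps up to the top dose). Adherent lines were fixed and stained with the nucleic acid dye Syto60, suspension lines read with resazurin; signal relative to control wells, capped at 0 and 100%. One two-parameter sigmoid per drug and line, fitted in a mixed model over all curves with the slope shared within a line.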

CCT007093 = compound: O=C1/C(=C/c2cccs2)CC/C1=C\c1cccs1 [CCT007093]; conditions: top dose 6.6 µM; top dose inferred
Procedure: as §1

KIN001-266 = compound: CCN1CCC(n2cc(CNc3cc(Cl)c4ncc(C#N)c(Nc5ccc(F)c(Cl)c5)c4c3)nn2)CC1 [KIN001-266]; conditions: top dose 20 µM; top dose inferred
Procedure: as §1

QL-XII-47 = compound: C=CC(=O)N1CCc2ccc(-n3c(=O)ccc4cnc5ccc(-c6cnn(C)c6)cc5c43)cc21 [QL-XII-47]; conditions: top dose 10.24 µM; top dose inferred
Procedure: as §1

Cell Line	AUC (BAY 61-3606)	IC50 (BAY 61-3606)	AUC (CCT007093)	IC50 (CCT007093)	AUC (KIN001-266)	IC50 (KIN001-266)	AUC (QL-XII-47)	IC50 (QL-XII-47)
LB831-BLC (bladder, adherent)	0.58	0.833 µM	0.982	> 6.6 µM	0.873	19.8 µM	0.671	1.94 µM
WM35 (melanoma, adherent)	0.839	5.5 µM	0.967	> 6.6 µM	0.722	5.35 µM	0.525	0.749 µM
COLO-824 (breast, adherent)	0.902	> 8 µM	0.986	> 6.6 µM	0.847	15.1 µM	0.865	9.32 µM
H2803 (mesothelioma, adherent)	0.815	5.33 µM	0.979	> 6.6 µM	0.918	> 20 µM	0.879	> 10.2 µM
NCI-H650 (lung adenocarcinoma, adherent)	0.903	> 8 µM	0.982	> 6.6 µM	0.897	> 20 µM	0.654	1.79 µM
SU-DHL-4 (B-cell lymphoma, suspension)	0.804	2.76 µM	0.995	> 6.6 µM	0.916	14.3 µM	0.684	1.78 µM
DK-MG (glioma, adherent)	0.826	> 8 µM	0.926	> 6.6 µM	0.945	> 20 µM	0.557	0.989 µM
HO-1-N-1 (head and neck, adherent)	0.985	> 8 µM	0.984	> 6.6 µM	0.973	> 20 µM	0.7	2.22 µM
HT-29 (large intestine, adherent)	0.76	–	0.988	> 6.6 µM	0.821	11.5 µM	0.649	1.65 µM
MHH-ES-1 (Ewing sarcoma, adherent)	0.844	5.59 µM	0.951	> 6.6 µM	0.692	4.27 µM	0.671	1.9 µM
T84 (large intestine, adherent)	0.772	3.15 µM	0.986	> 6.6 µM	0.873	19.9 µM	0.731	2.95 µM
COR-L88 (small cell lung carcinoma, adherent)	0.956	> 8 µM	0.983	> 6.6 µM	0.832	16.3 µM	0.929	> 10.2 µM
COLO-783 (melanoma, adherent)	0.991	> 8 µM	0.987	> 6.6 µM	0.983	> 20 µM	0.964	> 10.2 µM
huH-1 (liver, adherent)	0.983	> 8 µM	0.977	> 6.6 µM	0.983	> 20 µM	0.981	> 10.2 µM
COR-L23 (large cell lung carcinoma, adherent)	0.748	2.52 µM	0.977	> 6.6 µM	0.751	6.43 µM	0.63	1.45 µM
NCI-H64 (small cell lung carcinoma, suspension)	0.761	2.19 µM	0.99	> 6.6 µM	0.906	14.6 µM	0.778	3.12 µM
UMC-11 (lung carcinoid, adherent)	0.895	7.92 µM	0.988	> 6.6 µM	0.875	16.1 µM	0.884	9.04 µM
HCC2998 (large intestine, adherent)	0.833	4.96 µM	0.978	> 6.6 µM	0.883	> 20 µM	0.921	> 10.2 µM
NOS-1 (osteosarcoma, adherent)	0.501	0.502 µM	0.975	> 6.6 µM	0.823	15.5 µM	0.503	0.652 µM
ECC10 (stomach, suspension)	0.609	1.01 µM	0.959	> 6.6 µM	0.893	> 20 µM	0.545	0.855 µM

Cell Line	AUC (BAY 61-3606)	IC50 (BAY 61-3606)	AUC (CCT007093)	IC50 (CCT007093)	AUC (KIN001-266)	IC50 (KIN001-266)	AUC (QL-XII-47)	IC50 (QL-XII-47)
ESS-1 (endometrium, adherent)	0.811	3.71 µM	0.99	> 6.6 µM	0.99	> 20 µM	0.76	3.28 µM
HOP-92 (large cell lung carcinoma, adherent)	0.884	> 8 µM	0.956	> 6.6 µM	0.979	> 20 µM	0.982	> 10.2 µM
EKVX (lung adenocarcinoma, adherent)	0.867	> 8 µM	0.888	> 6.6 µM	0.912	> 20 µM	0.947	> 10.2 µM
KP-3 (pancreas, adherent)	0.86	> 8 µM	0.984	> 6.6 µM	0.933	> 20 µM	0.68	2.26 µM
SCC-4 (head and neck, adherent)	0.85	7.88 µM	0.937	> 6.6 µM	0.96	> 20 µM	0.955	> 10.2 µM
SK-UT-1 (soft tissue, adherent)	0.849	5.19 µM	0.989	> 6.6 µM	0.928	> 20 µM	0.57	0.974 µM
RH-41 (rhabdomyosarcoma, adherent)	0.832	4 µM	0.992	> 6.6 µM	0.878	14.6 µM	0.912	> 10.2 µM
NCI-H2030 (lung adenocarcinoma, adherent)	0.747	2.88 µM	0.981	> 6.6 µM	0.816	13.1 µM	0.673	2.09 µM
HuO-3N1 (osteosarcoma, adherent)	0.832	7.51 µM	0.946	> 6.6 µM	0.981	> 20 µM	0.727	3.54 µM
MOG-G-UVW (glioma, adherent)	0.858	6.27 µM	0.97	> 6.6 µM	0.973	> 20 µM	0.645	1.59 µM
SK-N-FI (neuroblastoma, adherent)	0.955	> 8 µM	0.989	> 6.6 µM	0.881	> 20 µM	0.408	0.359 µM
NCI-H1651 (lung adenocarcinoma, adherent)	0.806	4.47 µM	0.927	> 6.6 µM	0.976	> 20 µM	0.987	> 10.2 µM
LOXIMVI (melanoma, semi-adherent)	0.771	2.73 µM	0.989	> 6.6 µM	0.893	19.4 µM	0.764	3.34 µM
JAR (urogenital system, adherent)	0.988	> 8 µM	0.982	> 6.6 µM	0.98	> 20 µM	0.652	1.68 µM
MPP-89 (mesothelioma, adherent)	0.675	1.8 µM	0.967	> 6.6 µM	0.916	> 20 µM	0.853	> 10.2 µM
SAS (head and neck, adherent)	0.93	> 8 µM	0.974	> 6.6 µM	0.891	> 20 µM	0.475	0.543 µM
BT-474 (breast, adherent)	0.887	> 8 µM	0.95	> 6.6 µM	0.863	> 20 µM	0.552	0.902 µM
NCI-H2227 (small cell lung carcinoma, semi-adherent)	0.986	> 8 µM	0.985	> 6.6 µM	0.834	15.5 µM	0.524	0.751 µM
KLE (endometrium, adherent)	0.917	> 8 µM	0.956	> 6.6 µM	0.879	> 20 µM	0.702	3.3 µM
NCI-H1703 (lung adenocarcinoma, adherent)	0.963	> 8 µM	0.981	> 6.6 µM	0.973	> 20 µM	0.75	4 µM

Cell Line	AUC (BAY 61-3606)	IC50 (BAY 61-3606)	AUC (CCT007093)	IC50 (CCT007093)	AUC (KIN001-266)	IC50 (KIN001-266)	AUC (QL-XII-47)	IC50 (QL-XII-47)
EC-GI-10 (oesophagus, adherent)	0.989	> 8 µM	0.969	> 6.6 µM	0.968	> 20 µM	0.989	> 10.2 µM
BV-173 (chronic myeloid leukaemia, suspension)	0.88	6.58 µM	0.982	> 6.6 µM	0.883	16.9 µM	0.645	1.53 µM
NCI-H358 (lung adenocarcinoma, adherent)	0.571	0.8 µM	0.984	> 6.6 µM	0.826	14 µM	0.599	1.23 µM
PE/CA-PJ15 (head and neck, adherent)	0.985	> 8 µM	0.967	> 6.6 µM	0.941	> 20 µM	0.848	8.62 µM
HT (B-cell lymphoma, suspension)	0.846	5.15 µM	0.988	> 6.6 µM	0.884	18.6 µM	0.701	2.23 µM
RXF393 (kidney, adherent)	0.794	5.41 µM	0.918	> 6.6 µM	0.797	14 µM	0.599	1.32 µM
SBC-5 (small cell lung carcinoma, adherent)	0.906	7.32 µM	0.953	> 6.6 µM	0.993	> 20 µM	0.979	> 10.2 µM
WM-115 (melanoma, adherent)	0.98	> 8 µM	0.982	> 6.6 µM	0.858	> 20 µM	0.448	0.445 µM
NCI-H2452 (mesothelioma, adherent)	0.984	> 8 µM	0.967	> 6.6 µM	0.976	> 20 µM	0.984	> 10.2 µM
EW-1 (Ewing sarcoma, semi-adherent)	0.65	1.25 µM	0.982	> 6.6 µM	0.844	12.6 µM	0.649	1.59 µM
Mewo (melanoma, adherent)	0.965	> 8 µM	0.969	> 6.6 µM	0.948	> 20 µM	0.984	> 10.2 µM
PCI-30 (head and neck, adherent)	0.984	> 8 µM	0.968	> 6.6 µM	0.984	> 20 µM	0.962	> 10.2 µM
NCI-H28 (mesothelioma, adherent)	0.802	5.5 µM	0.916	> 6.6 µM	0.927	> 20 µM	0.935	> 10.2 µM
HuH-7 (liver, adherent)	0.907	> 8 µM	0.987	> 6.6 µM	0.985	> 20 µM	0.926	> 10.2 µM
SiHa (cervix, adherent)	0.974	> 8 µM	0.987	> 6.6 µM	0.982	> 20 µM	0.917	> 10.2 µM
U-118-MG (glioma, adherent)	0.854	7.96 µM	0.962	> 6.6 µM	0.955	> 20 µM	0.985	> 10.2 µM
RPMI-8866 (chronic myeloid leukaemia, suspension)	0.824	4.31 µM	0.935	> 6.6 µM	0.866	15.8 µM	0.852	7.04 µM
KYSE-270 (oesophagus, adherent)	0.686	1.51 µM	0.991	> 6.6 µM	0.842	11.1 µM	0.991	> 10.2 µM
MZ7-mel (melanoma, adherent)	0.958	> 8 µM	0.985	> 6.6 µM	0.872	> 20 µM	0.828	6.6 µM
D-502MG (glioma, adherent)	0.943	> 8 µM	0.953	> 6.6 µM	0.857	> 20 µM	0.832	> 10.2 µM
